These results are taken from the supplement of paper PMC11417369.

± gives the standard deviation of the averaged measurements. Some of the results follow.

The test system of this test is PfAP2-G AP2 domain (GST-tagged). Description: gcPBM binding intensity (ln(normalized median fluorescence intensity)); higher = stronger DNA binding. Put shortly: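 An Agilent 4 × 180k array of primer-extended double-stranded 36-bp intergenic genomic probes, with negative controls, was incubated for 1 h with GST-tagged P. falciparum DNA-binding domains expressed in E. coli. Alexa488 anti-GST antibody detected bound protein, scanned at 488 nm. Binding intensity is the highest Masliner-normalised natural-log median intensity across replicate spots of either probe orientation.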
Consider “TAAAAATTAAAACTGGGTACAAATTTATAGATAGCC [XGTACX_site8075]”, for which the “gcPBM binding intensity (ln)” value was found to be 11.1 ± 0.69.
The same measure for “CATTAACAAATAAATGCACACATATATATAAATAAT [CACACA_site7892]”: 9.935 ± 0.035; for “AATTTATTAGATAGATGTACATTTTAATAAAAGTAG [XGTACX_site6819]”: 11.1 ± 0.67.
The same measure for “TAAAGATGAAATATCACACATATATAAATATATAAA [CACACA_site4580]”: 9.66 ± 0.028.
The same measure for “ATATGTTTTTTTTTTTTTTTTTAATTTGTCATAAAT [CACACA_negctrl_site1208]”: 9.79 ± 0.2; for “TCTTTCAATATTAATGCATGTTAATAATAAATTTTA [TGCATGCA_site448]”: 9.675 ± 0.035.
In the case of “TGAACAATATATAATAGTACATATTTATTTTTTTCT [XGTACX_site4256]”, the “gcPBM binding intensity (ln)” value worked out at 10.8 ± 0.58.
In the case of ACTTTTACACTTTGATTGCACTACTAAACCAGTTCA, the “gcPBM binding intensity (ln)” value stood at 10.4 ± 0.2.
The same measure for “AGAATTATTCTAAAAACACACAATACAAAAGTGCAT [CACACA_site3004]”: 10.1 ± 0.34; for “AAAAAACACGCGCACACACACACACGCGCCCACATA [CACACA_site7106]”: 11.2 ± 0.74; for “ATAAAAAAAAATATTTGTACACATATTTATATATTA [XGTACX_site8147]”: 11.4 ± 0.7.
For “AATACTAAAACCCATACACACACATATATATAGTAC [CACACA_site9041]”, the “gcPBM binding intensity (ln)” value came to 10.7 ± 0.23.
In the case of “ATATAAATAAATATATGTACACACACAAATATATAC [XGTACX_site3950]”, the “gcPBM binding intensity (ln)” value amounted to 11.4 ± 0.73.
Turning to “TCTTTCTTATTTTAATGATATTTATTCATTCCAGTT [CACACA_negctrl_site1679]”, the “gcPBM binding intensity (ln)” value was 9.795 ± 0.021.
Turning to “TTAATTTATTTATGCACACATATATAATTACCCATA [CACACA_site682]”, the “gcPBM binding intensity (ln)” value came to 10.1 ± 0.33.
In the case of “CGTATATATAAATACACACACATATATATCTGTAAA [CACACA_site4272]”, the “gcPBM binding intensity (ln)” value stood at 9.94 ± 0.2.
As to “AATTAAATTACTTATACACACATAAAATGGGTGTAT [CACACA_site4703]”, the “gcPBM binding intensity (ln)” value worked out at 9.815 ± 0.092.
On to “AAAAAAAAAAAAAAGCGTACAAATAAAATATATTTA [XGTACX_site7195]”, for which the “gcPBM binding intensity (ln)” value came to 11.6 ± 1.
In the case of “TATATATAAAAATATACACACACAAATGTATATATA [CACACA_site7956]”, the “gcPBM binding intensity (ln)” value is 9.855 ± 0.035.
For the sequence “ATGTAATGAAACATTGCACACATATAATAATATAAT [CACACA_site8402]”, the “gcPBM binding intensity (ln)” value was 9.965 ± 0.021.
The same measure for “CCTTTTTTGTTTTATGCACACCATATAACCAAGGCT [CACACA_site7893]”: 10.3 ± 0.21; for “TAAATGTCCTTATTTGCACACACACCCATAAGAAAT [CACACA_site3185]”: 11 ± 0.76.
As to “TTTTTATATGCGTATTGTACATTATACATATATATA [XGTACX_site6786]”, the “gcPBM binding intensity (ln)” value was 11 ± 0.49.
For the sequence “AACATCAATTTATTTTCTTACATTATACGATTCATG [CACACA_negctrl_site1300]”, the “gcPBM binding intensity (ln)” value was 9.955 ± 0.092.
For “AAAAAAAAATCAAAATGTACTTATTTTTATAATAAT [XGTACX_site4712]”, the “gcPBM binding intensity (ln)” value stood at 11.2 ± 0.81.
The same measure for “TAATTATGCCAACACACACACACACCCAACTAAAAA [CACACA_site8823]”: 10.4 ± 0.44.
The same measure for “ATGATGTGCAAGAGTAGTACACAATTTTGGGTTTAT [XGTACX_site501]”: 11.6 ± 1; for “AAACATAAGAAACACACACACATATATATATATATA [CACACA_site3642]”: 10 ± 0.25.
The same measure for “ATTCTTATAACAAGAAGTACAAATATATGTATATAT [XGTACX_site4528]”: 11.3 ± 0.71; for “TTTTTTTTTAAGATGAAGATCAATATATAAATATAT [CACACA_negctrl_site1538]”: 9.555 ± 0.035; for “AAAAAAAAAAAACATACACACATACATACCTATATA [CACACA_site6575]”: 9.83 ± 0.071.
With “AGAATATCAAAATAAAGTACATTTATTATATATATG [XGTACX_site7100]”, the “gcPBM binding intensity (ln)” value is 11.2 ± 0.87.
The same measure for “TTTTCTCTCAAAAAATGTACATAATATATATATTTT [XGTACX_site4861]”: 11 ± 0.58; for “ATACACACTTAAAAAAGTACTTAACTACATGAATTG [XGTACX_site1203]”: 11.1 ± 0.59.
The same measure for “ATATTATATATAAAATGTACATTTAAAAATATTATA [XGTACX_site889]”: 10.9 ± 0.57; for “TTTTTTATTTTAAAAACATGCATAAAATATAATAGT [TGCATGCA_site762]”: 10.1 ± 0.32.
Turning to “AGATAAAAAAAGTACACACACACATATATTTATATA [CACACA_site7437]”, the “gcPBM binding intensity (ln)” value was found to be 11.8 ± 1.2.
The same measure for “TATATATTTAATTTCACACATATATATAATTATTAT [CACACA_site4936]”: 9.885 ± 0.007.
The same measure for “TTTTGTTGGATACAAAAATTACAAATTATTTAAAAA [TGCATGCA_negctrl_site532]”: 10 ± 0.28; for “TTTTTTTTTTTTTAAACATGCATAATAAATATAATA [TGCATGCA_site265]”: 9.81 ± 0.35; for “TTTTTTATTTTGTGCACACACATAAAAATATATATA [CACACA_site761]”: 10.7 ± 0.53.
For “TTGTTTTCTTATTATTACTACAATACTTAAGTCAGA [TGCATGCA_negctrl_site184]”, the “gcPBM binding intensity (ln)” value is 10.1 ± 0.26.
The same measure for “TATTTATTTATGGACACACATACAAATCTTCCAGAC [CACACA_site942]”: 11 ± 0.62; for “TAATCATAACTTGATACGCACACGTTATATAAATAA [CACACA_site1579]”: 10.4 ± 0.4; for “TATATATATAGAAATGCATGTTAATAAAAGTTATAA [TGCATGCA_site947]”: 9.845 ± 0.035.
The same measure for “GAATACATAATAACATGTACACACATTCTTCTATAA [XGTACX_site8725]”: 11.2 ± 0.57; for “TATGAACACCAACACACACACAAAAAAAAAAAAAAA [CACACA_site2013]”: 10.1 ± 0.7; for “TATCATAAAAAATATACACACAAAGGATATTTATAT [CACACA_site6841]”: 9.84 ± 0.2.
The same measure for “AAAAAAAATATAATATGTACATATCTATATATCAAC [XGTACX_site4881]”: 11.2 ± 0.76; for “TATACATATGAAAATACACACATACATACAGATATA [CACACA_site5002]”: 10.1 ± 0.12; for “TTGTTTTTAATATCGGTGCAATGGAAAGAAAAGAAG [GTGCAC_site9494]”: 10.3 ± 0.3.
Consider “GTACATTATTTATATACACACAAAGAAAAATATACA [CACACA_site3452]”, for which the “gcPBM binding intensity (ln)” value was determined as 11 ± 0.54.
As to “TTTAAAATATATAGTACACACGTGAACACAAATACA [CACACA_site4392]”, the “gcPBM binding intensity (ln)” value was 11.5 ± 0.76.
Turning to “TAAAGCATATTATAAACACACACTGTATAAAGATAT [CACACA_site296]”, the “gcPBM binding intensity (ln)” value turned out to be 9.965 ± 0.049.
On to “TACGTAAAATAATTGAGTACATAATTATATATATAT [XGTACX_site5361]”, for which the “gcPBM binding intensity (ln)” value turned out to be 11.4 ± 0.91.
With “AAAAATAATCATTAGGTGCAAAAAATATATATATAT [GTGCAC_site9631]”, the “gcPBM binding intensity (ln)” value came to 10.2 ± 0.57.
